Test results from PubChem BioAssay AID488969 (Vanderbilt High Throughput Screening Facility, 2010).
Whole data set: some 110,000 compounds, median “z-score” near -0.1, cut for the highest 2% near 2. The list shows a part of the results.

molecular target: Metabotropic glutamate receptor 8 (Rattus norvegicus) (UniProt P70579); test: rat mGluR8 modulators via GIRK flux, primary screen, cell-based, thallium flux, HTS (AID 488969); settings: HEK293 rat mGluR8, GIRK (G protein-gated inwardly rectifying potassium channel) thallium flux, FluoZin2; at 10 µM; stronger effect = higher value; submaximal glutamate (EC20) added with thallium
Chain of UniProt P70579 (P70579 whole entry, looked up): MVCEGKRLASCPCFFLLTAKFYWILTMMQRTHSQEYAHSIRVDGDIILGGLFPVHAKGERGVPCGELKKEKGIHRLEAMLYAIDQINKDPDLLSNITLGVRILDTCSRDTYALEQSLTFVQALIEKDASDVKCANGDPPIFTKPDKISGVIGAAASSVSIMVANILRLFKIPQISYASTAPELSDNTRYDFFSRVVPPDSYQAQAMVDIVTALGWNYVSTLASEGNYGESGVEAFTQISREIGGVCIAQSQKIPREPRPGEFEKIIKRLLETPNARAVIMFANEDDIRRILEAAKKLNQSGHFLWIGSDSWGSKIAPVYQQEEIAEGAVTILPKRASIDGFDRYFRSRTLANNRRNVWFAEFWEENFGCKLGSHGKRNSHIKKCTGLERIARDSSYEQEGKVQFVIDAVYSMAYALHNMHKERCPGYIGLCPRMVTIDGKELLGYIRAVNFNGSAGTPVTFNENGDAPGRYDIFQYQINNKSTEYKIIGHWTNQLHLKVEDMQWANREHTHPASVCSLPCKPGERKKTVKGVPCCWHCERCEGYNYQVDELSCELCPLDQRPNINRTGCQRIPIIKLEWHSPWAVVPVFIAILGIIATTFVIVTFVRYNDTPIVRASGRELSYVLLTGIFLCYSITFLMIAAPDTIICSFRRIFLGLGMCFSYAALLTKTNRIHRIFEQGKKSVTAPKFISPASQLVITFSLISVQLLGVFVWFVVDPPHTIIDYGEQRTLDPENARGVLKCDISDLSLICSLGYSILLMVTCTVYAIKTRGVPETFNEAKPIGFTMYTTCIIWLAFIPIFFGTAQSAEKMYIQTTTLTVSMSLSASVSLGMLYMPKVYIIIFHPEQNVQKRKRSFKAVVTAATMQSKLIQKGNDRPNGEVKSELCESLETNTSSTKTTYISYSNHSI

Compound | z-score
COc1ccccc1NS(=O)(=O)N(C)C | -0.202
O=[N+]([O-])c1cc(/C=N/Nc2nc3ccccc3[nH]2)c(O)cc1O | -0.273
Cc1ccc(NC(NC(=O)c2cccs2)C(Cl)(Cl)Cl)cc1 (centres undefined) | -0.497
CCCCC(CCC(=O)Nc1nccs1)C(=O)O (centres undefined) | -0.0988
CN(CCCNC(=O)c1cccc(N2CCCC2=O)c1)c1ccccc1 | -0.176
CCOC(=O)N1CCN(C(=O)CSCc2nc(-c3ccccc3F)oc2C)CC1 | -0.628
Cc1cc(C(=O)N2CCC(Cc3ccccc3)CC2)ccc1[N+](=O)[O-] | -0.573
Cc1ccc(OCCC(=O)NCCc2ccc(S(N)(=O)=O)cc2)cc1 | -0.083
Nc1ncc(-c2ccc([N+](=O)[O-])cc2)cn1 | -0.418
COc1cc(OC)c2c(c1)OC(c1ccc(OC)c(OC)c1)C(O)C2=O (centres undefined) | 0.0753
Cc1ccc(C(=O)OCc2nc(N)nc(Nc3ccccc3C)n2)cc1 | -0.21
NS(=O)(=O)c1ccc(CCNC(=O)C2CCCCN2S(=O)(=O)c2ccccc2)cc1 (centres undefined) | -0.178
COc1ccc(-c2cc(C(F)(F)F)n3nc(C(=O)NCc4ccco4)cc3n2)cc1 | 1.09
COCC(=O)Nc1ccc(N(C)C)cc1 | 0.287
O=C(Nc1ccc(Cl)cc1)Nc1nnc(SCc2ccccc2)s1 | -0.368
CCOC(=O)N1CCC(NCCNC(=O)c2ccccc2)CC1 | 0.292
COCCn1nnnc1CN1CCC(Cc2ccccc2)CC1 | 0.866
CCS(=O)(=O)N1CCN(c2c(Cl)cccc2[N+](=O)[O-])CC1 | -0.0555
CCCCCCNC(=O)c1cc(-c2ccco2)nc2ccccc12 | -0.638
COc1ccc(OC)c(/C=N/NC(=O)CCCC(=O)Nc2cccc(Br)c2)c1 | -0.48
COc1ccc(C2C(C(=O)N3CCN(c4ccccc4)CC3)c3ccccc3C(=O)N2C)cc1OC (centres undefined) | 0.758
COCCNC(=O)c1onc(CSc2cc(C)cc(C)c2)c1C(=O)O | -0.152
COc1cccc(NC(=S)NCc2cccs2)c1 | -0.106
Cc1c(-c2ccccc2)[n+](=O)c(-c2ccco2)c(C)n1[O-] | -0.246
O=c1cc(CSc2nnnn2-c2ccccc2)nc(Nc2ccc(F)cc2)[nH]1 | 0.316
CCCCCCNc1c([N+](=O)[O-])cc(C)cc1[N+](=O)[O-] | -0.2
CC(=O)c1ccc(N2CCC(c3cc(-c4ccc(Cl)cc4Cl)n[nH]3)CC2)c([N+](=O)[O-])c1 | 0.00983

Compound | z-score
CCn1c(SCC(=O)NCCc2ccccc2)nnc1-c1ccco1 | 0.117
O=c1cc(/C=C/c2c(F)cccc2Cl)[nH]c2ccccc12 | 0.185
Cc1c(/C=N/NC(=O)c2cccnc2)c2ccccn2c1C(=O)c1ccc(F)cc1 | -0.992
CCC(=O)Nc1cc(-c2nn(CC(=O)N3CCCCC3)c(=O)c3ccccc23)ccc1N1CCOCC1 | 0.174
COc1ccc(C(=O)N2CCN(c3ccc([N+](=O)[O-])c(NCCc4ccc(OC)c(OC)c4)c3)CC2)cc1 | 0.418
Cc1ccc(NC(=O)CC2C(=O)NCCN2C(=S)Nc2ccccc2)c(C)c1 (centres undefined) | -0.193
Brc1cccc(-c2nnc(SCc3ccon3)n2-c2ccccc2)c1 | -2.54
Fc1ccccc1COc1ccc(/C=N/NC(=S)NCc2ccccc2)cc1 | 0.431
O=C(NCc1cccnc1)/C(=N\O)c1ccccc1 | 2.02
CCOC(=O)Cn1c(S(=O)(=O)Cc2cccc(F)c2)nc(-c2ccccc2)c1-c1ccccc1 | -0.568
CC(=O)c1cccc(NC(=O)N2CCCC2C(=O)Nc2c(C)cccc2C)c1 (centres undefined) | 0.484
Cc1nc([N+](=O)[O-])c(Br)n1CC(=O)c1ccccc1 | -0.0872
O=C(Nc1cccc(F)c1)c1ccccc1 | 0.384
O=c1cc(NCc2ccco2)[nH]c(=O)n1-c1ccc(Br)cc1 | -0.36
Cn1cc(C(c2ccccn2)c2cn(C)c3ccccc23)c2ccccc21 | -0.248
CC1CCc2nc3ccccc3c(C(=O)OCC(=O)N3CCc4ccccc43)c2C1 (centres undefined) | -0.34
Cc1cc(C(F)F)n2ncc(C(=O)NC3CCCCCC3)c2n1 | -0.418
Cc1c(/C(O)=C2\C(=O)C(=O)N(CCN(C)C)C2c2ccco2)cnn1-c1ccccc1 (centres undefined) | -0.0986
CNc1nc(Nc2ccc(C)c(Cl)c2)nc(N)c1[N+](=O)[O-] | -2.03
O=C(NNC(=O)C1CCCCC1)c1cnccn1 | -0.2
CCOC(=O)Cn1c(S(=O)(=O)Cc2ccc(Cl)cc2)nc(-c2ccccc2)c1-c1ccccc1 | 0.0233
CCCC(=O)Nc1ccc(Cl)c(NC(=O)c2ccc(Br)o2)c1 | -0.645
c1ccc(C2Nc3ccccc3-c3nc4ccccc4n32)cc1 (centres undefined) | -0.556
CN(C1CCCCC1)S(=O)(=O)c1ccc(S(=O)(=O)N2CCN(CCC#N)CC2)cc1 | 0.242
Cn1c(C(=O)O)c(CC(=O)Nc2ccccc2F)c2ccccc21 | -0.861
CN(C)c1cc[n+](CC(=O)Nc2ccc([N+](=O)[O-])cc2Cl)cc1 | -0.0606
CC(Oc1ccc(-c2ccccc2)c(F)c1)c1ccn(S(=O)(=O)c2ccc(Cl)cc2)n1 (centres undefined) | -0.269
